Among all 43,000 compounds or so, about 200 (0.47%) were called active. Another 12% or so got no clear call; they are omitted. Calls follow the shape of the dose curve; as a rule, active = well fitted cell-killing curve with a large enough effect; inconclusive = small, poorly fitted or top-dose-only effect, or effect the other way; inactive = flat fitted curve, though single readings scatter. Some of the results follow.
Test: Cell viability qHTS assay in S16 Pmp22-F2sN cells; also: nearly all actives have a fitted effect of over 65% in size
Settings: S16 Pmp22-F2sN Schwann cells (luciferase reporters placed in the Pmp22 gene) viability, CellTiter-Glo, 24 h; series mostly up to 57.5 µM; activity change, negative = cytotoxicity: at the top concentration
Procedure, shortened: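 CellTiter-Glo counter-screen, qHTS, 1536-well. Cells: S16(c9) Pmp22-F2sN, 500-1,000/well in DMEM + 10% FBS. Cpd 23 nL pin transfer, 24 h, 37C/5% CO2. Read: luminescence, CCD imager.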
For `CCCCNC(=O)C1CCC(Cn2c(=O)c3sccc3n(Cc3ccccc3)c2=O)CC1` (stereo not drawn), the “activity change, negative = cytotoxicity” value was inactive: 17.9%.
In the case of `CCC(=O)N1CCc2cc(S(=O)(=O)NC(C(=O)NCCc3ccc(OC)c(OC)c3)C(C)C)ccc21` (stereo not drawn), the “activity change, negative = cytotoxicity” value is reported as inactive: -4.58%.
For `Cc1cc(C)c(NC(=O)c2nc3ccccc3nc2N2CCCCC2)c(C)c1`, the “activity change, negative = cytotoxicity” value was inactive: 14.5%.
With `Cc1ccc(-n2c(=O)c3c4c(sc3n(Cc3cc(=O)n5cc(Cl)ccc5n3)c2=O)CCC4)cc1C` the “activity change, negative = cytotoxicity” value was inactive: 7.91%.
With `CCOC(=O)c1ccccc1NC(=O)CN(c1cccc(C)c1C)S(=O)(=O)c1ccccc1` the “activity change, negative = cytotoxicity” value was inactive: -3.85%.
With `CCc1ccc(-c2nn(CC(=O)NC3CCCCC3)c3c2cnc2ccc(F)cc23)cc1` the “activity change, negative = cytotoxicity” value was inactive: 11%.
With `COc1ccc(CNC(=O)c2cc3c(=O)n(Cc4cccnc4)ccc3nc2C)cc1` the “activity change, negative = cytotoxicity” value was inactive: 6.93%.
In the case of `COc1ccccc1CNC(=O)c1cc2c(=O)oc3ccc(C)cc3c2s1`, the “activity change, negative = cytotoxicity” value is reported as inactive: 9.49%.
For `COc1ccccc1CCNC(=O)Cc1ccc(NC(=O)N2CCSc3ncccc32)cc1`, the “activity change, negative = cytotoxicity” value was inactive: 0.903%.
For `CCCNS(=O)(=O)c1cc(-c2nn3c(C)nnc3c3ccccc23)ccc1C`, the “activity change, negative = cytotoxicity” value was inactive: 15.5%.
With `CC(=O)c1ccc(S(=O)(=O)N2CCn3cccc3C2c2ccccc2F)cc1` (stereo not drawn) the “activity change, negative = cytotoxicity” value was inactive: -1.47%.
For `Cc1cc(C)cc(NC(=O)Cc2csc(C)n2)c1`, the “activity change, negative = cytotoxicity” value was inactive: 2.16%.
For `CCOc1ccccc1NC(=O)C1CCN(S(=O)(=O)c2ccc3[nH]c(=O)oc3c2)CC1`, the “activity change, negative = cytotoxicity” value was inactive: 5.95%.
With `CCc1cccc(OCC(=O)Nc2ccc(S(=O)(=O)Nc3ncccn3)cc2)c1` the “activity change, negative = cytotoxicity” value was inactive: 5.65%.
With `CC(C)(C)c1ccc(OCc2nc3ccccc3n2CCOc2ccccc2)cc1` the “activity change, negative = cytotoxicity” value was inactive: -15.1%.
In the case of `Cc1cccc(C)c1OCc1nc2c3cnn(-c4ccccc4F)c3ncn2n1`, the “activity change, negative = cytotoxicity” value is reported as inactive: 4.06%.
In the case of `O=C(c1ccccc1F)N1c2ncnn2C2(CCCCC2)[C@@H]2CCCC[C@@H]21`, the “activity change, negative = cytotoxicity” value is reported as inactive: 7.79%.
In the case of `Cc1cccc(Nc2nc(N)nc(N)c2S(=O)(=O)c2ccccc2)c1`, the “activity change, negative = cytotoxicity” value is reported as inactive: 20%.
In the case of `CCSc1ncc(Cl)c(C(=O)Nc2nnc(CC)s2)n1`, the “activity change, negative = cytotoxicity” value is reported as inactive: -2.24%.
With `CCOc1ccc2oc(=O)cc(CN3CCN(C(=O)c4ccc(OC)c(OC)c4)CC3)c2c1` the “activity change, negative = cytotoxicity” value was inactive: -2.17%.
With `CCC(C(=O)NCCc1ccccc1)n1nc(C)c2sc3ccccc3c2c1=O` (stereo not drawn) the “activity change, negative = cytotoxicity” value was inactive: -11.6%.
In the case of `COc1ccc(C2=C(C)C(N3CCC(C(=O)Nc4ccccc4F)CC3)=NS2(=O)=O)cc1`, the “activity change, negative = cytotoxicity” value is reported as inactive: -9.66%.
For `Cc1c(C)n(Cc2ccc(F)cc2)c2ccc(C(=O)N3CCN(c4ccc(F)cc4)CC3)cc12`, the “activity change, negative = cytotoxicity” value was inactive: -7.99%.
In the case of `Cc1cccc(CCNC(=O)C2CCC(CNS(=O)(=O)c3ccccc3)CC2)c1` (stereo not drawn), the “activity change, negative = cytotoxicity” value is reported as inactive: -0.586%.
With `CCCC(CCC)C(=O)Nc1cccc(-c2nc3cccnc3s2)c1C` the “activity change, negative = cytotoxicity” value was inactive: -11.1%.
For `COc1cccc(-c2nc(CS(=O)(=O)CC(=O)NCCc3ccc(OC)cc3OC)c(C)o2)c1`, the “activity change, negative = cytotoxicity” value was inactive: 2.97%.
With `COCCCNC(=O)c1ccc(Cn2c(=O)c3ccccc3n(CC(=O)Nc3c(C)cccc3C)c2=O)cc1` the “activity change, negative = cytotoxicity” value was inactive: 0.232%.
For `CCOc1cc(C(=O)Nc2ccc3nc(Nc4cccc(Cl)c4)cc(C)c3c2)cc(OCC)c1OCC`, the “activity change, negative = cytotoxicity” value was inactive: 11.6%.
With `Cc1nnc(SCc2cc(=O)n3cccc(C)c3n2)s1` the “activity change, negative = cytotoxicity” value was inactive: -3.6%.
With `Cc1nn2c(C)c(C(=O)N3CCN(c4ccccc4F)CC3)cnc2c1-c1ccc(F)cc1` the “activity change, negative = cytotoxicity” value was inactive: -0.729%.
In the case of `O=C(Nc1ccc(F)c(Cl)c1)C1CCN(C(=O)c2ccc(F)cc2)CC1`, the “activity change, negative = cytotoxicity” value is reported as inactive: -8.08%.
For `N#Cc1ccccc1Cn1c(=O)n(CCCC(=O)NCc2ccccc2Cl)c(=O)c2ccccc21`, the “activity change, negative = cytotoxicity” value was inactive: 1%.
In the case of `COc1ccc(Cl)cc1NC(=O)CSC1=Nc2ccccc2C2=NC(CCC(=O)NCc3ccc(F)cc3)C(=O)N12` (stereo not drawn), the “activity change, negative = cytotoxicity” value is reported as inactive: -22.8%.
For `CCOc1ccc(N2CC(c3nc4ccccc4n3CCCOc3ccccc3OC)CC2=O)cc1` (stereo not drawn), the “activity change, negative = cytotoxicity” value was inactive: -11.1%.
With `CCc1nnc(SCc2cccc(F)c2)c2cc3sc(C)cc3n12` the “activity change, negative = cytotoxicity” value was inactive: -4.65%.
For `CCS(=O)(=O)N1CC(=O)N(c2ccc(Cl)cc2C)C(C)(C(=O)NC2CCCCCC2)C1` (stereo not drawn), the “activity change, negative = cytotoxicity” value was inactive: -1.3%.
In the case of `COc1ccc(NC(=O)C2CCN(S(=O)(=O)c3ccc4[nH]c(=O)ccc4c3)CC2)cc1Cl`, the “activity change, negative = cytotoxicity” value is reported as inactive: -0.0312%.
With `COc1cc(OC)c(NC(=O)C(c2ccccc2)N2Cc3ccccc3C2=O)cc1Cl` (stereo not drawn) the “activity change, negative = cytotoxicity” value was inactive: 2.83%.
For `COc1ccc(N2CC(NC(=O)/C=C\c3ccc4c(c3)OCO4)CC2=O)cc1` (stereo not drawn), the “activity change, negative = cytotoxicity” value was inactive: 0.0133%.
In the case of `CCOC(=O)c1scc(-c2ccccc2)c1S(=O)(=O)Nc1ccc(N(C)C)cc1`, the “activity change, negative = cytotoxicity” value is reported as inactive: -1.08%.
For `CC(C)CN(CCCNC(=O)c1cc(-c2ccc(Br)s2)nc2ccccc12)CC(C)C`, the “activity change, negative = cytotoxicity” value was inactive: -13.3%.
With `O=C(Nc1nonc1-c1ccc(Cl)cc1)c1ccccc1F` the “activity change, negative = cytotoxicity” value was inactive: -5.9%.
For `COc1ccc(CCNC(=O)C2(c3cccs3)CCOCC2)cc1`, the “activity change, negative = cytotoxicity” value was inactive: 3.43%.
In the case of `Cc1nc2ccccc2n1CCc1nc2c3ccccc3nc(SCC(=O)Nc3cccc(C(F)(F)F)c3)n2n1`, the “activity change, negative = cytotoxicity” value is reported as inactive: -8.47%.
For `O=C(CCC1N=C2c3ccccc3N=C(SCc3ccccc3Cl)N2C1=O)NCCc1ccccc1` (stereo not drawn), the “activity change, negative = cytotoxicity” value was inactive: 12.6%.
For `Cn1c(=O)n(-c2ccc3c(c2)OCO3)c2nc(-c3ccc(Cl)cc3)nc(C(N)=O)c21`, the “activity change, negative = cytotoxicity” value was inactive: 22.6%.
For `Cc1ccccc1NC(=O)CSc1nc(-c2ccc(F)cc2)nc2c1Cc1ccccc1O2`, the “activity change, negative = cytotoxicity” value was inactive: 7.09%.
For `COc1ccc(Br)cc1Cn1nnc(C(=O)Nc2ccc(C)cc2C)c1N`, the “activity change, negative = cytotoxicity” value was inactive: -6.26%.

— PubChem BioAssay AID1508642 (National Center for Advancing Translational Sciences (NCATS), 2021)
% is scaled to controls: 0 for no effect and ±100 for the full control effect.
